The record followed here is PubChem BioAssay AID360 (National Center for Advancing Translational Sciences (NCATS), 2006).

In all, about 48,000 compounds went through this assay and about 550 (1.1%) were called active. About 4% were inconclusive and are not listed. No stated cut-off is given here; in the data, active means potency below about 15 µM; inconclusive means mostly about 16 µM to 33 µM; inactive means weaker than that. Some of the results follow.
Potency means the concentration at half of the fitted maximal effect.

UniProt P04062, sequence (P04062 whole entry, looked up): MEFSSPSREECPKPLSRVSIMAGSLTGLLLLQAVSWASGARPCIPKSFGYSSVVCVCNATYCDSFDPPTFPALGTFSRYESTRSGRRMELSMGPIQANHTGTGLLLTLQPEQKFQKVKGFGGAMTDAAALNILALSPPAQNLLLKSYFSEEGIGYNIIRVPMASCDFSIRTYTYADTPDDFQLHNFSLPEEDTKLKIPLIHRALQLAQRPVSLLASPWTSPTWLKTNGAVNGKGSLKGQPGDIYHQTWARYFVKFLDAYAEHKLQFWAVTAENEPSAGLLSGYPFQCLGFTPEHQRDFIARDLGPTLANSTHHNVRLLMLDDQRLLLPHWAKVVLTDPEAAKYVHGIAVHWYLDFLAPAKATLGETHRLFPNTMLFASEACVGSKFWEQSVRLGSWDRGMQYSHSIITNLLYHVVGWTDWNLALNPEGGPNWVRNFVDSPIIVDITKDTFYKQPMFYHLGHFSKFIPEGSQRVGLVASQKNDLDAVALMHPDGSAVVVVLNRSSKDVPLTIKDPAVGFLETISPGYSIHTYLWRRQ

The experiment deals with Lysosomal acid glucosylceramidase (Homo sapiens) (UniProt P04062). Nature of the experiment: Glucocerebrosidase.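 Further: the screen sought inhibitors.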 The following applies: purified enzyme, resorufin glucoside fluorescence (screen aimed at inhibitors), 20 min. The gist of the method:
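Normal human glucocerebrosidase (0.2 nM final) was assayed with resorufin β-D-glucopyranoside (30 uM final) in 50mM citric acid/KH2PO4, 10mM sodium taurocholate, 0.01% tween-20, pH 5.9. Compounds were titrated; fluorescence (Ex 548, Em 600) read after 20 min at RT.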
On to `C=CCNc1ccc(F)c(F)c1N1CCCCCC1=O`, for which the Potency was inactive: > 76.9 µM.
Turning to `Cc1ccnc(NS(=O)(=O)c2ccc(NS(=O)(=O)c3cccs3)cc2)n1`, the Potency was inactive: > 76.9 µM.
The figure for `CCOC(=O)c1nn(-c2ccccc2C)c(=O)c(C#N)c1C` is inactive: > 76.9 µM; for `CCOCCCNC(=O)CCS(=O)(=O)Cc1ccc(C)cc1` it is inactive: > 76.9 µM; for `O=C(NCCc1ccc(Cl)cc1)C1CCN(S(=O)(=O)N2CCCCC2)CC1` it is inactive: > 76.9 µM.
With `C#CCNc1cc(C)nc2ncnn12`, the Potency was inactive: > 76.9 µM.
The same measure for `CC(=O)Nc1ccc(Oc2cc(C#N)c(C#N)cc2N2CCCCCC2)cc1`: inactive: > 76.9 µM.
For the compound `CCN1CCN(C(c2cc(OC)ccc2OC)c2nnnn2Cc2ccccc2)CC1` (stereo unspecified), the Potency was inactive: > 76.9 µM.
For `CC1CCN(C(=O)CSc2nc3cccnc3n2C)CC1`, the Potency is inactive: > 76.9 µM.
In the case of `COCCNC(=O)C(c1ccc(C)o1)N(C(=O)c1snc(C(N)=O)c1N)c1ccc(C)c(C)c1` (stereo unspecified), the Potency was inactive: > 76.9 µM.
For the compound `Cn1c(=O)c2c(nc(CN3CCN(c4ccccc4)CC3)n2Cc2ccccc2F)n(C)c1=O`, the Potency is inactive: > 76.9 µM.
Regarding `CCN(CC)CCc1c(C)[nH]c(C(=O)OCc2ccccc2)c1C`, the Potency was inactive: > 76.9 µM.
For `Cc1cc(=O)c2ccccc2[nH]1`, the Potency is inactive: > 76.9 µM.
The figure for `NC(=O)C1(N2CCCCC2)CCN(Cc2nc3ccccc3c(=O)[nH]2)CC1` is inactive: > 76.9 µM.
Take `COC(=O)COc1ccc(S(=O)(=O)Nc2cc(OC)ccc2OC)cc1`: the Potency is inactive: > 76.9 µM.
On to `CC(C)(C)NC(=O)Cn1nnc(-c2ccc(S(C)(=O)=O)cc2)n1`, for which the Potency is inactive: > 76.9 µM.
Turning to `COc1ccc(NC(=O)c2ccc(S(=O)(=O)N(C)C)cc2)cc1OC`, the Potency is inactive: > 76.9 µM.
On to `Nc1nonc1-n1nnc(C(=O)O)c1-c1cccs1`, for which the Potency was inactive: > 76.9 µM.
For `COc1cc(-c2noc(CCC(N)=O)n2)cc(OC)c1OC`, the Potency was inactive: > 76.9 µM.
Consider `O=S(=O)(N1CCOCC1)N1CCN(c2ccccc2F)CC1`, for which the Potency was inactive: > 76.9 µM.
For `COCCNc1nc(-n2nc(C)cc2C)nc2sc3c(c12)CCCC3`, the Potency result was “inactive”.
`COC(=O)c1ccccc1NC(=O)Cn1cc(Br)cn1`: the Potency was inactive: > 76.9 µM.
Take `CCC(=O)N1CCc2cc(S(=O)(=O)Nc3ccc4c(c3)OCCO4)ccc21`: the Potency was inactive: > 76.9 µM.
Take `Cc1nc(N2CCN(c3ccccc3)CC2)[nH]c(=O)c1Cc1cccc2ccccc12`: the Potency is inactive: > 76.9 µM.
As for `CCOC(=O)c1ccc(Oc2nc(NC)nc(OC)n2)cc1`, the Potency is inactive: > 76.9 µM.
For the compound `CCN(C(=O)COC(=O)c1cccnc1SC)C1CCS(=O)(=O)C1` (stereo unspecified), the Potency is inactive: > 76.9 µM.
With `COc1ccc(-c2nc(S(=O)(=O)c3ccc(C)cc3)c(N3CCCC3)o2)cc1`, the Potency was inactive: > 76.9 µM.
With `COCc1cc(C)nc(SCC(=O)N2CCC(C)CC2)c1C#N`, the Potency was inactive: > 76.9 µM.
The same measure for `COc1ccc(S(=O)(=O)N(C)CC(=O)Nc2c(F)cccc2F)cc1`: inactive: > 76.9 µM; for `Cc1nn(-c2ccccc2)c2c1C1(C(=O)N(C)c3ccccc31)N(c1ccccc1)C(=O)N2` (stereo unspecified): inactive: > 76.9 µM; for `COc1ccc(-c2nnn(CC(=O)N(CC(=O)NC3CCCC3)Cc3cccs3)n2)cc1OC`: inactive: > 76.9 µM.
The same measure for `Cc1cc(C(=O)COC(=O)CCCN2C(=O)c3ccccc3C2=O)c(C)n1C`: inactive: > 76.9 µM; for `Cc1cccc(-c2nsc(SCC(=O)N3CCCC3)n2)c1`: inactive: > 76.9 µM.
Consider `CCOc1cc(S(=O)(=O)N(CC)CC)ccc1Br`, for which the Potency was inactive: > 76.9 µM.
As to `NC(=O)CSc1nnc(-c2cc3ccccc3o2)n1Cc1ccccc1`, the Potency is inactive: > 76.9 µM.
On to `Cc1ccccc1Cc1c(C)nc2nc(SCC(=O)NCc3ccco3)nn2c1C`, for which the Potency was inactive: > 76.9 µM.
The same measure for `CCOc1cc(CO)ccc1OCC(=O)N1CCCCC1`: inactive: > 76.9 µM; for `CN(C)S(=O)(=O)c1ccc(C(=O)Oc2cc(=O)[nH]c3ccccc23)cc1`: “inactive”; for `COc1ccccc1Nc1ncccc1C(=O)O`: inactive: > 76.9 µM.
Take `Cc1nc(C)c(C(=O)C2=C(O)C(=O)N(CCN(C)C)C2c2cccs2)s1` (stereo unspecified): the Potency was inactive: > 76.9 µM.
Turning to `Cn1c(CN2CCOCC2)nnc1SCC(=O)Nc1ccc2c(c1)OCCO2`, the Potency was inactive: > 76.9 µM.
Regarding `O=C1NC(c2ccccc2)C(C(=O)c2cccs2)C(O)(C(F)(F)F)N1` (stereo unspecified), the Potency was inactive: > 76.9 µM.
As to `COC(=O)c1ccccc1NC(=O)CSc1nnc(COc2cccc(OC)c2)n1C`, the Potency is inactive: > 76.9 µM.
The same measure for `CC(NC(=O)NC12CC3CC(CC(C3)C1)C2)C1CCCO1` (stereo unspecified): inactive: > 76.9 µM; for `COc1ccc(CC(=O)Nc2nncs2)cc1OC`: inactive: > 76.9 µM.
As to `Cn1c(=O)cc(OCCCC(=O)N2CCN(Cc3ccc4c(c3)OCO4)CC2)c2ccccc21`, the Potency was inactive: > 76.9 µM.
Turning to `CN(CC(=O)N1CCN(C2CCCCC2)CC1)S(=O)(=O)c1cccc2nsnc12`, the Potency was inactive: > 76.9 µM.
For `Cc1ccc(S(=O)(=O)N(C)c2nonc2C)cc1`, the Potency is inactive: > 76.9 µM.
Take `CCCc1[nH]nc2c1C1(C(=O)N(CC)c3ccccc31)C(C#N)=C(N)O2` (stereo unspecified): the Potency is inactive: > 76.9 µM.
The figure for `CCOc1ccc2nc(NC(=O)C(CC)Sc3nc(C)cc(=O)[nH]3)sc2c1` (stereo unspecified) is inactive: > 76.9 µM; for `CCOC(=O)C(NC(=O)c1ccc(F)cc1)(Nc1nnc(C)s1)C(F)(F)F` (stereo unspecified) it is inactive: > 76.9 µM; for `Cc1cc(C(=O)OCC(=O)N2CCOCC2)c2ccccc2n1` it is inactive: > 76.9 µM.
As for `Cc1cc(C)c(S(=O)(=O)N(CC(=O)O)C2CCCCC2)c(C)c1`, the Potency is inactive: > 76.9 µM.
The same measure for `COc1ccccc1-c1nnn(CC#N)n1`: inactive: > 76.9 µM.
For `COc1ccc(C(=O)NC2CCCCC2)cc1S(=O)(=O)N1CCCC1`, the Potency is inactive: > 76.9 µM.
In the case of `CC(C)OC(=O)CN1C(=O)C(C)(C)Oc2ccc(C(=O)NC(C)(C)C)cc21`, the Potency is inactive: > 76.9 µM.
On to `O=C(N1CCCCC1)N1CCN(C(=O)N(c2ccccc2)c2ccccc2)CC1`, for which the Potency is inactive: > 76.9 µM.
On to `COc1cc(NC(=O)Nc2ccccc2)c(OC)cc1NC(=O)CN1CCCCC1`, for which the Potency was inactive: > 76.9 µM.
`COCCNC(=O)c1c[nH]c2ccc(OC)cc2c1=O`: the Potency is inactive: > 76.9 µM.
With `CCCCCSc1nnc(-c2cc(Br)ccc2N)c(=O)[nH]1`, the Potency result was “inactive”.
Take `CCNCCNC(=O)c1c(O)c2c([nH]c1=O)CCCC2`: the Potency was inactive: > 76.9 µM.
Turning to `CCn1ncc(Cl)c1C(=O)Nc1cc(Cl)ccc1Cl`, the Potency was inactive: > 76.9 µM.
The same measure for `CCOC(=O)c1cc(C#N)c(SCC(=O)c2cc(C#N)c(SC)nc2C)[nH]c1=O`: inactive: > 76.9 µM; for `COC(=O)[C@H](CCSC)NC(=O)NC1CCN(Cc2ccccc2)CC1`: inactive: > 76.9 µM.
As to `COCCCNC(=O)Cn1nnc(-c2ccccc2NC(=O)c2ccc(F)cc2)n1`, the Potency was inactive: > 76.9 µM.
Consider `CCN1C(=O)C2C(c3cccc(F)c3)NC(CC)(C(=O)OC)C2C1=O` (stereo unspecified), for which the Potency was inactive: > 76.9 µM.
In the case of `O=S(=O)(NCCC1=CCCCC1)c1cccc2nsnc12`, the Potency was inactive: > 76.9 µM.
For the compound `O=C(c1nc(-c2ccccc2)n(-c2ccccc2)n1)N1CCCCCC1`, the Potency is inactive: > 76.9 µM.
For `COc1ccc(CN(CCN2CCOCC2)C(=O)c2c(F)cccc2F)cc1OC`, the Potency was inactive: > 76.9 µM.
For the compound `CCOC(=O)c1ccc(S(=O)(=O)N2CCN(S(=O)(=O)CC)CC2)cc1`, the Potency was inactive: > 76.9 µM.
The same measure for `CC(C)Sc1nc2sc3c(c2c2nnc(SCC(=O)NCc4ccco4)n12)CCCC3`: inactive: > 76.9 µM.
The same measure for `COc1ccc(CCNC2=NCC(C)S2)cc1` (stereo unspecified): inactive: > 76.9 µM; for `COC(=O)Cn1cnc2sc(C)c(S(=O)(=O)N3CCN(c4ccccc4OC)CC3)c2c1=O`: inactive: > 76.9 µM.
Turning to `CCOc1ccc(-c2nc(CSCC(=O)NCc3ccco3)c(C)o2)cc1`, the Potency was inactive: > 76.9 µM.
Take `Cc1ccc(CS(=O)(=O)CCC(=O)NCCCN2CCCC2=O)cc1`: the Potency was inactive: > 76.9 µM.
For `Cc1ccc(-c2nnc3sc(CCc4ccccc4)nn23)cc1`, the Potency was inactive: > 76.9 µM.
The same measure for `O=C1c2ccccc2S(=O)(=O)N1Cc1cccc(S(=O)(=O)N2CCOCC2)c1`: inactive: > 76.9 µM; for `Cc1csc(NC(=O)C2CCCO2)n1` (stereo unspecified): inactive: > 76.9 µM; for `Cc1scc(C(=O)Nc2ccon2)c1-c1ccccc1`: inactive: > 76.9 µM.
With `CC(C(=O)NCc1cccs1)n1cccc1` (stereo unspecified), the Potency was inactive: > 76.9 µM.
`Cc1cc2cc3c(cc2nc1SCC(=O)N1CCN(C(=O)c2ccco2)CC1)OCO3`: the Potency was inactive: > 76.9 µM.
The figure for `O=C(NCCCN1CCOCC1)c1csc2c1CCCC2` is inactive: > 76.9 µM; for `CCOC(=O)C1C(=O)C=C(C)C(C(=O)OCC)C1c1ccc(OC)cc1` (stereo unspecified) it is inactive: > 76.9 µM.
Turning to `COc1ccc(C(=O)CSc2nnc(-c3cc(C)cc(C)c3)o2)cc1`, the Potency was inactive: > 76.9 µM.
Consider `CCOC(=O)N1CCC(NC(=O)CCC(=O)N2CC(C)Oc3ccc(Cl)cc32)CC1` (stereo unspecified), for which the Potency is inactive: > 76.9 µM.
Take `COCCSc1nnc(-c2cccc(C#N)c2)n1C`: the Potency is inactive: > 76.9 µM.
As for `Cc1ccc(C(=O)OCc2cn3ccccc3n2)cc1`, the Potency was inactive: > 76.9 µM.
In the case of `CCOC(=O)C1=C(N)OC2=C(C(=O)CCC2)C1c1cccnc1` (stereo unspecified), the Potency is inactive: > 76.9 µM.
As for `CCCCCCSc1nsc(NC(C)=O)n1`, the Potency is inactive: > 76.9 µM.
Turning to `CC(C)=CC(=O)OCC(=O)Nc1ccccc1Cl`, the Potency was inactive: > 76.9 µM.
The figure for `O=C(COc1ncnc2ccc(Br)cc12)N1CCOCC1` is inactive: > 76.9 µM.
